According to the supplement of paper PMC3334620:
Whole data set: some 33,000 sequences, median “E-score (-0.5 to 0.5)” near -0.021, cut for the highest 2% near 0.32. The list shows a part of the results.

The sequences below were run against T1, Zap1 (UniProt P47043) (assay: PBM E-score (8-mer binding enrichment) (E-score (-0.5 to 0.5)); higher = stronger / more preferred TF binding; most listed sequences are background and not binding sites). Conditions: protein concentration: 200 nM; construct: GST-full length.
T1 sequence: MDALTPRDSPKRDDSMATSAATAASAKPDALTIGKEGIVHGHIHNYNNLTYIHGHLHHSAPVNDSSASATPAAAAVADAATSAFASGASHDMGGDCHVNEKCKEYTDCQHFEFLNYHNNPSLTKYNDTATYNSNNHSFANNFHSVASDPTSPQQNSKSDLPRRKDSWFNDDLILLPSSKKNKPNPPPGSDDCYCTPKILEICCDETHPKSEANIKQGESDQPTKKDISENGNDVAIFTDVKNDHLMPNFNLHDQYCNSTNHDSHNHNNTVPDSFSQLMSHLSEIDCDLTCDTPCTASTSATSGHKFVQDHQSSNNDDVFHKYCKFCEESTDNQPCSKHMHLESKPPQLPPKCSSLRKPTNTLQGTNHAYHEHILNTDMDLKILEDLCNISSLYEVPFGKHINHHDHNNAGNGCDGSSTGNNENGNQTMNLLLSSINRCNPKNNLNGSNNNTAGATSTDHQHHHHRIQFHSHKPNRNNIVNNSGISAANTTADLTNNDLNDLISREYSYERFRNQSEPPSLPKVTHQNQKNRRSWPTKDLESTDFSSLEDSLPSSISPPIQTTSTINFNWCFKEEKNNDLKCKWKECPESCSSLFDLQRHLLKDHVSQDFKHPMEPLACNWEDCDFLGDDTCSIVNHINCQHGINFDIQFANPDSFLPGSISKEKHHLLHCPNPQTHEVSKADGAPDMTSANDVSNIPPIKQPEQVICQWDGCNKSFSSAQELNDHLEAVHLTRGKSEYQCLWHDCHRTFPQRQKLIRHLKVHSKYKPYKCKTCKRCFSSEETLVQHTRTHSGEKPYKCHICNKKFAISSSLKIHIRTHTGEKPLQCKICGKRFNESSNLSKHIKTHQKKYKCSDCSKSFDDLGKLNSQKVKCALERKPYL
Method in brief: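 GST-tagged yeast TFs (full-length or DNA-binding domain) were made by PURExpress in vitro transcription/translation and applied at about 100-200 nM to universal all-10-mer Agilent arrays. The arrays were made double-stranded by primer extension, on fresh or once-stripped slides. Bound protein was detected with fluorescent anti-GST, and scans were normalised with masliner. Each ungapped eight-base word, pooled with its reverse complement, received an E-score (modified Wilcoxon-Mann-Whitney statistic) from the Universal PBM Analysis Suite.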

Row | Sequence | PBM E-score
1 | ACAGTCCG | -0.112
2 | GCGGGGCC | -0.0181
3 | ACTATCGC | -0.0428
4 | ACTAAGTC | -0.208
5 | CCCGGCCC | 0.0417
6 | TATAAAGA | 0.166
7 | CTTCTTAC | -0.117
8 | GCCAATAA | 0.143
9 | AAAGCTGT | -0.081
10 | AATACGAG | 0.0893
11 | AATGAACG | -0.109
12 | AACCTACC | 0.268
13 | AACCATCC | 0.0998
14 | CAGGCTCC | -0.345
15 | AACAAAAT | 0.0834
16 | AGGAGGAC | -0.272
17 | CCGCTCTA | -0.0142
18 | CAATGGGG | 0.156
19 | CTGGGGGA | -0.279
20 | CATAGTTC | -0.0247
21 | CGAACACC | 0.0572
22 | TCGTACGA | 0.0803

Row | Sequence | PBM E-score
23 | GCCTTCCC | -0.271
24 | GCATGGCC | 0.0872
25 | ATATAATC | -0.0159
26 | AACCACGG | 0.124
27 | ATTGGGCC | 0.0292
28 | CCCAGCGG | -0.135
29 | CGGCATTA | 0.0847
30 | CTGGGTAC | 0.305
31 | AGTGGAAC | 0.023
32 | ACGGTAGG | -0.0223
33 | AGGTCACT | 0.25
34 | AGCGAACC | -0.0358
35 | TAAACCTA | 0.137
36 | TCCGTAGA | 0.0934
37 | CAGGCTTA | -0.135
38 | AATCATCC | -0.0964
39 | AAACCGTA | 0.184
40 | ATTCGCTA | -0.113
41 | AGGGCGCC | -0.232
42 | GATATAGA | -0.113
43 | CATACGGC | -0.103
44 | CTCATCAA | 0.00695

Row | Sequence | PBM E-score
45 | CGATAGCA | -0.169
46 | ATGATCTA | 0.182
47 | CTCAACCA | 0.00637
48 | CGACCCCA | 0.215
49 | ACGGTTGG | -0.0119
50 | ACCAGTAC | 0.115
51 | CACGCACC | -0.0856
52 | ACTAGGCT | 0.0455
53 | AGGCTAGA | -0.15
54 | CTGTCTGC | -0.24
55 | CCTTCTAG | 0.123
56 | ATGAGGTG | 0.0386
57 | GCAGGGTA | 0.373
58 | TGGACACA | -0.0121
59 | AATCCCTG | -0.122
60 | TTTATAAA | 0.248
61 | ACTGGAAC | -0.0151
62 | ACTACACT | -0.0734
63 | ACGATAAC | 0.298
64 | ATCGCTCG | -0.126
65 | AGTCGATG | -0.141
66 | AAGCCAGT | -0.294

Row | Sequence | PBM E-score
67 | AGGGAGGC | -0.281
68 | ACTCGCGG | 0.129
69 | CGATGATC | -0.00936
70 | ATGTCACG | -0.195
71 | AAGACGAG | -0.161
72 | GAGGCAAA | 0.0604
73 | AGCGTTGA | -0.143
74 | GACGGTGC | -0.0913
75 | GTGGCCAC | 0.214
76 | CGGTTAAA | 0.328
77 | ACTGCATC | -0.00683
78 | GAGGTTGA | -0.00385
79 | ATTATAAA | 0.0699
80 | CCTAGCGA | -0.23
81 | TACCGAGA | 0.156
82 | CAGACCAC | 0.0673
83 | GACTCAGA | -0.0646
84 | AATTTGAC | 0.118
85 | AAGCCCCG | -0.183
86 | TTGAGCAA | -0.0776
